In the RNAGym collection of RNA variant scans (doi:10.7554/elife.90254):
Read counts are not given, so values of variants with three or more changes are uncertain.

B1: LINE1-mini (parent)
chain: GGCAGAGCUCAACACAGCGUGGCAAAGUGGCUGUGGCUAGACUGCC

Variants of: B1
Experiment: self-cleavage, relative activity (ratio to wild type); higher = more cleavage; in vitro, sequencing; the parent is a self-cleaving ribozyme

Question: Which self-cleavage does the source give for GGCAGAAUUCAACACAGCGUGGCAAAGUGGCUGUGGCUAGACUGCG [G7A C8U C46G] here?
Answer: 0.26

Question: With GGUAGAACUCAACACAGCGCGGCAAUGUGGCUGUGGCUAUACUGCU [C3U G7A U20C A26U G40U C46U] as the variant, how does the self-cleavage read?
Answer: 0.06

Question: For AGCAAAGCUCAACACAGCCUGGCAAACUGGCUGUGGCUAGACUGCG [G1A G5A G19C G27C C46G], which self-cleavage is on record?
Answer: 0.14

Question: With GGCAGAGAUCAACACAGCGGGGCAAAGUGGCUGUGGCUAAACUGCC [C8A U20G G40A] as the variant, how does the self-cleavage read?
Answer: 0.06

Question: Which self-cleavage does the source give for GGCAUAGCUCCACACAGCAUGGCAAAGUUGCUGUGGCUAGACUGCC [G5U A11C G19A G29U] here?
Answer: 0.03

Question: For GGUAGAGCUCCACACAGCGUGGCAAAGUAGCUGUAGGUAGACUGCC [C3U A11C G29A G35A C37G], which self-cleavage is on record?
Answer: 0.01

Question: Which self-cleavage does the source give for GGCAGAUCUCAACGCAGCGUGGCAAAGUGGGUGUGGCUAGACUGCC [G7U A14G C31G] here?
Answer: 0.06

Question: Which self-cleavage does the source give for GGCAGAGCUCAACCCAGCGCGGCAAAGUGGCUGUGGUUAGUCUGCC [A14C U20C C37U A41U] here?
Answer: 0

Question: For GGCAGAGCUCAACACAGCAUGCCACAGUGGCUGUGGAUGGACUGCC [G19A G22C A25C C37A A39G], which self-cleavage is on record?
Answer: 0.04

Question: Which self-cleavage does the source give for GGCAGAGCUCAGCACAGCGCGGCCAAGUGGCUGUGGGUAGACUGCC [A12G U20C A24C C37G] here?
Answer: 0.01

Question: With GGCGGAGCUCAACACAGCGUGGCAAAGUGGCUGUGGAUAGAUUGCC [A4G C37A C42U] as the variant, how does the self-cleavage read?
Answer: 0.38

Question: With GGUAGAGCUCAACACAGCGUAGCAUAGUGGCUGUGCCCAGAUUGCC [C3U G21A A25U G36C U38C C42U] as the variant, how does the self-cleavage read?
Answer: 0.05

Question: With GGCAGAGCUCAACACAGCGUGGCGAAGUGAAUAUGGCUAGACUGCC [A24G G30A C31A G33A] as the variant, how does the self-cleavage read?
Answer: 0.4

Question: With GGCAGAGCACAACAGAGCGUGGCAAAGUUGCUGUGGUGGGACAGCC [U9A C15G G29U C37U U38G A39G U43A] as the variant, how does the self-cleavage read?
Answer: 0

Question: For GGCAGAGCUGAACACAGCGUGUAAAAUUGGCUGCGGCUCGACUGCC [C10G G22U C23A G27U U34C A39C], which self-cleavage is on record?
Answer: 0.01

Question: Which self-cleavage does the source give for GGAAGAGCUCAACACAGCGUGGCAAAGUGGCAGUGGGUAGACUGCA [C3A U32A C37G C46A] here?
Answer: 0.05

Question: Which self-cleavage does the source give for GGCAGAAGUCAACACAGCGUGGCAAAGUGGCUGUGGCUACACUGCC [G7A C8G G40C] here?
Answer: 0.03

Question: With UGUAGAGCUCAACAGAGCGUGGCAAAGUGGCUGUGGCUAGACUGCC [G1U C3U C15G] as the variant, how does the self-cleavage read?
Answer: 0.03

Question: Which self-cleavage does the source give for GGCAGCGCUCAACACAGCGUGGCAAACUGGCUGUAGCUAGACUGCA [A6C G27C G35A C46A] here?
Answer: 0.09

Question: With GGCAGAGUUCAGCACAGCGGGGCAAAGUGGCUGUGGCUAGACUGCC [C8U A12G U20G] as the variant, how does the self-cleavage read?
Answer: 0.08

Question: With GGCAGAGCUCAACACAGUGUGGCUAAGUGGCUGUUGCUAGACUGCC [C18U A24U G35U] as the variant, how does the self-cleavage read?
Answer: 0.13

Question: With GGCAGAGCUCAACACAGCGUGUCAAAGUGGCUGUGGCGAGCCUGCC [G22U U38G A41C] as the variant, how does the self-cleavage read?
Answer: 0.03

Question: Which self-cleavage does the source give for GGCAGAGCUCAACACAGCGUGGCAAAGUGGGUGUGGCUGAACUGCC [C31G A39G G40A] here?
Answer: 0

Question: For GGCAGAACGCAACACAGCGUGGCAAAGGGGCUGUGGCUAGACUGCC [G7A U9G U28G], which self-cleavage is on record?
Answer: 0.07

Question: With GGCAGAUGUCAACACACCGUGGCACAGUGGCUGUGGCUAGACUGCC [G7U C8G G17C A25C] as the variant, how does the self-cleavage read?
Answer: 0.13

Question: Which self-cleavage does the source give for UGCAGAGCUCAGCACAGCGUGGCAAACCGGCUGUGGCUAGACUGCC [G1U A12G G27C U28C] here?
Answer: 0.01

Question: Which self-cleavage does the source give for GGCAGAUCCCAACAUAGCGUGGCAAAGUGGCUGUGGCUAGACUGCC [G7U U9C C15U] here?
Answer: 0.01

Question: For GUCAGAGCUCAACACAGCCUGACAAAGUGGCUGUGGCUAGACUGCC [G2U G19C G22A], which self-cleavage is on record?
Answer: 0.51

Question: For GGCAGAGCUCCUCAUAGCAUGGCAAAGUGGCUGUGGCUAGACUGCC [A11C A12U C15U G19A], which self-cleavage is on record?
Answer: 0.03

Question: For GGCAAUGCUCAACGCAGCGUGGCAAAGUGGCUGUGGCUGGACUGCC [G5A A6U A14G A39G], which self-cleavage is on record?
Answer: 0.07

Question: With GGCAGAGCUCAACACAGCAUAGCAACGAGGCUGUGGCUAGACUGCC [G19A G21A A26C U28A] as the variant, how does the self-cleavage read?
Answer: 2.58

Question: For GGCAGAGCUCAACACAGCGUGGCAACGUGGCUGUGGCUAGACCACC [A26C U43C G44A], which self-cleavage is on record?
Answer: 0.04

Question: With UGCGGAGCUCAACACAGCGUGGCAAAGUGGCUGUUGCUAGACUGCC [G1U A4G G35U] as the variant, how does the self-cleavage read?
Answer: 0.12

Question: Which self-cleavage does the source give for GGCAGAGCUCAGCAUAGCGUGCCAAAGUGGCUGUGGCUACACUGCC [A12G C15U G22C G40C] here?
Answer: 0.02

Question: With GGCAGAGCUGACCACAGCGUGGCAAAGUGGCUAUGGCUAGACUGCA [C10G A12C G33A C46A] as the variant, how does the self-cleavage read?
Answer: 0.01

Question: For GGCAGAGCUUAACACAGCAUCGCAAAGUGGCUGUGGCUAGACUGCC [C10U G19A G21C], which self-cleavage is on record?
Answer: 0.19

Question: With GGCUGAGCUCAACAUAGCGUGGCAAAGUGGCUGUGGCUACACUGCC [A4U C15U G40C] as the variant, how does the self-cleavage read?
Answer: 0.02

Question: For GGCAGAGCUCAACACAGCGUGGCAAAGUCGCUGUGGCUUGAUUACU [G29C A39U C42U G44A C46U], which self-cleavage is on record?
Answer: 0.01

Question: For GGCAGAGCUCAACACUGCCUGGCAAAGUGGCUGUGUCUAGACUGCC [A16U G19C G36U], which self-cleavage is on record?
Answer: 0.06

Question: For GAAAGAGCUCAACACAGCGCGGCAAUGUGUCUGUGGCUAGACUGCC [G2A C3A U20C A26U G30U], which self-cleavage is on record?
Answer: 1.26

Question: For GUCAGAGAUCAACACAGCGUGGCGAAGUGGCUAUGGCUAGACUGCC [G2U C8A A24G G33A], which self-cleavage is on record?
Answer: 0.11

Question: For GGCAGAGCUCAACACAGCGUGGCAAAGUAGCUGUGGCUUGACUGCG [G29A A39U C46G], which self-cleavage is on record?
Answer: 0.08

Question: With GGCGGAGCUCCACACAGCGUGGCAAAGUGGCAAUCGCUAGACUACC [A4G A11C U32A G33A G35C G44A] as the variant, how does the self-cleavage read?
Answer: 0.01

Question: Which self-cleavage does the source give for GGCAGAGCUCAACACAGCGCCCCAAAGUGGCUGUGGAUAGACUGUC [U20C G21C G22C C37A C45U] here?
Answer: 0.03

Question: For GGCAGAGCUUAUCACAGCGUGGCAAAGUCGCUGUGGCUAGACUGCC [C10U A12U G29C], which self-cleavage is on record?
Answer: 0.01

Question: Which self-cleavage does the source give for GGAAGAGCUCAACAGACCGUGGCAAAGUGGCUGUGGCUAGACUGCC [C3A C15G G17C] here?
Answer: 0.33

Question: For GGCAGAGCUCAACACAACGUGGCAAACUGGCUGUGGCUAGAUUGCU [G17A G27C C42U C46U], which self-cleavage is on record?
Answer: 0.04

Question: With GGCAGAACCGAACACAGCGUGGCAAAUUGGCUGUGGCUAGCCUGCC [G7A U9C C10G G27U A41C] as the variant, how does the self-cleavage read?
Answer: 0.02

Question: Which self-cleavage does the source give for GGCAGAGCUCAACACAGCGUGGCAAAGUGGUAGUGGCUAGACAGCC [C31U U32A U43A] here?
Answer: 0.27

Question: For GGCACAGCUAAACAAAGCGUGGCAAAGUGGACGUGGCUAGACUGCC [G5C C10A C15A C31A U32C], which self-cleavage is on record?
Answer: 0.04

Question: Which self-cleavage does the source give for UACAGAGCUCAACACAGCGUGGCAACGUGGCUGUGGUUAGACUGCG [G1U G2A A26C C37U C46G] here?
Answer: 0.01

Question: Which self-cleavage does the source give for GGCAGAGCUCAACACAGCGUGGCAUAGUGGCUGUGGAUAGACUCCC [A25U C37A G44C] here?
Answer: 0.05

Question: Which self-cleavage does the source give for GGCAGAGCUCAAUACAGCGUAGCAAAGUGGCUGUGGCUUGACUGCC [C13U G21A A39U] here?
Answer: 0.14

Question: Which self-cleavage does the source give for GGCAGAUCUUAACACAGCGUAGCAAAGUGGCCGUGGCUAGACUGCC [G7U C10U G21A U32C] here?
Answer: 0.03

Question: With GGCAGAGCUCAACACAGUGUUGCAAACUGGCUGUGGCUUGACUGCG [C18U G21U G27C A39U C46G] as the variant, how does the self-cleavage read?
Answer: 0.07

Question: With GUCAGAGCUCGACACAGCGAGGCAAAGUGACUGUGGCUAGACUGCC [G2U A11G U20A G30A] as the variant, how does the self-cleavage read?
Answer: 0.01
